The experiment concerns Aphis gossypii. The experiment is described as follows: whole plant or invertebrate. Conditions: in Cucumis sativus, 48 h, read-out: Determination (mortality rate). As to the method: A cucumber leaf section having a diameter of 3 cm was placed on a wet sponge in a plastic cup. Thereafter, five female adults of Aphis gossypii were released into the plastic cup, and they were then left at rest overnight. Thereafter, the number of new-born larvae was counted. 0.4 ml each of an agent solution prepared by diluting a 10% wettable powder of each compound shown in Table 1 to a concentration of 250 ppm was sprayed thereto. Two days later, the number of deaths was counted, and the mortality rate was then calculated.

Consider `C[Si](C)(C)C#CCCNc1ncnc2sccc12` [Compound No. 2, 4-(4-Trimethylsilanyl-3-butynylamino)thieno[2,3-d]pyrimidine], for which the mortality at 250 ppm is 60 to 80%.

As for `C#CCCNc1ncnc2sccc12` [compound 1, 4-(3-butynylamino)thieno[2,3-d]pyrimidine], the mortality at 250 ppm lay within 80 to 95%.

Take `CC[Si](C#CCCNc1ncnc2sccc12)(CC)CC` [compound 3]: the mortality at 250 ppm is above 95%.

`CC(C)CC#CCCNc1ncnc2sccc12` [compound 7, 4-(6-Methyl-3-heptynylamino)thieno[2,3-d]pyrimidine]: the mortality at 250 ppm is above 95%.

As to `CC(C)(C)C#CCCNc1ncnc2sccc12` [compound 8], the mortality at 250 ppm was in the range of 80 to 95%.

Regarding `C(#CCc1ccccc1)CCNc1ncnc2sccc12` [compound 9], the mortality at 250 ppm is 60 to 80%.

Consider `C(#Cc1ccccc1)CCNc1ncnc2sccc12` [compound 10, 4-(4-Phenyl-3-butynylamino)thieno[2,3-d]pyrimidine], for which the mortality at 250 ppm is above 95%.

For `Fc1ccccc1C#CCCNc1ncnc2sccc12` [compound 11], the mortality at 250 ppm was above 95%.

As to `Fc1cccc(C#CCCNc2ncnc3sccc23)c1` [compound 12], the mortality at 250 ppm fell in the range of 80 to 95%.

Regarding `Clc1cccc(C#CCCNc2ncnc3sccc23)c1` [compound 15], the mortality at 250 ppm was 60 to 80%.

Consider `Cc1ccccc1C#CCCNc1ncnc2sccc12` [compound 17], for which the mortality at 250 ppm lay in the range of 80 to 95%.

As to `COc1ccccc1C#CCCNc1ncnc2sccc12` [compound 21], the mortality at 250 ppm is above 95%.

Take `COc1cccc(C#CCCNc2ncnc3sccc23)c1` [compound 22]: the mortality at 250 ppm is 80 to 95%.

Turning to `COc1ccc(C#CCCNc2ncnc3sccc23)cc1` [compound 23], the mortality at 250 ppm was 80 to 95%.

In the case of `FC(F)(F)c1ccccc1C#CCCNc1ncnc2sccc12` [compound 25], the mortality at 250 ppm fell in the range of 60 to 80%.

Turning to `COC(=O)c1ccc(C#CCCNc2ncnc3sccc23)cc1` [compound 31], the mortality at 250 ppm lay within 60 to 80%.

`FC(F)(F)Oc1ccccc1C#CCCNc1ncnc2sccc12` [compound 32]: the mortality at 250 ppm is 80 to 95%.

With `FC(F)(F)Oc1cccc(C#CCCNc2ncnc3sccc23)c1` [compound 33], the mortality at 250 ppm was 60 to 80%.

Regarding `FC(F)(F)Oc1ccc(C#CCCNc2ncnc3sccc23)cc1` [compound 34], the mortality at 250 ppm is 60 to 80%.

As to `N#Cc1ccccc1C#CCCNc1ncnc2sccc12` [compound 35], the mortality at 250 ppm was 60 to 80%.

In the case of `N#Cc1cccc(C#CCCNc2ncnc3sccc23)c1` [compound 36], the mortality at 250 ppm is 60 to 80%.

On to `N#Cc1ccc(C#CCCNc2ncnc3sccc23)cc1` [compound 37], for which the mortality at 250 ppm lay within 60 to 80%.

`OCc1ccccc1C#CCCNc1ncnc2sccc12` [compound 44]: the mortality at 250 ppm is above 95%.

As for `CCOCc1ccccc1C#CCCNc1ncnc2sccc12` [compound 46], the mortality at 250 ppm is above 95%.

With `FCc1ccccc1C#CCCNc1ncnc2sccc12` [compound 47], the mortality at 250 ppm is above 95%.

As for `O=Cc1ccccc1C#CCCNc1ncnc2sccc12` [compound 48], the mortality at 250 ppm was above 95%.

Regarding `COCc1ccccc1C#CCCNc1ncnc2ccsc12` [compound 49], the mortality at 250 ppm was above 95%.

In the case of `C(#Cc1cccs1)CCNc1ncnc2sccc12` [compound 53], the mortality at 250 ppm is above 95%.

As for `C(#Cc1ccsc1)CCNc1ncnc2sccc12` [compound 54], the mortality at 250 ppm was above 95%.

As for `C#CCOCc1nc(C#CCCNc2ncnc3sccc23)cs1` [compound 74], the mortality at 250 ppm lay in the range of 60 to 80%.

Take `C#CCCNc1ncnc2ccccc12` [compound 86]: the mortality at 250 ppm lay within 60 to 80%.

With `C[Si](C)(C)C#CCCNc1ncnc2ccccc12` [compound 87], the mortality at 250 ppm is above 95%.

On to `C(#CC1CC1)CCNc1ncnc2ccccc12` [compound 90], for which the mortality at 250 ppm lay in the range of 60 to 80%.

As to `C(#CC1CCCCC1)CCNc1ncnc2ccccc12` [compound 91], the mortality at 250 ppm is above 95%.

As for `C/C(C#N)=C/C#CCCNc1ncnc2ccccc12` [compound 93], the mortality at 250 ppm was in the range of 80 to 95%.

As for `C(#CC1=CCCCC1)CCNc1ncnc2ccccc12` [compound 94], the mortality at 250 ppm was 60 to 80%.

Regarding `FC(F)c1ccccc1C#CCCNc1ncnc2ccccc12` [compound 100], the mortality at 250 ppm is above 95%.

For `CCc1ccccc1C#CCCNc1ncnc2ccccc12` [compound 103], the mortality at 250 ppm is above 95%.

For the compound `CC(C)c1ccccc1C#CCCNc1ncnc2ccccc12` [compound 104], the mortality at 250 ppm was 60 to 80%.

On to `CSc1ccc(C#CCCNc2ncnc3ccccc23)cc1` [compound 117], for which the mortality at 250 ppm lay within 60 to 80%.

For `CN(C)S(=O)(=O)c1ccc(C#CCCNc2ncnc3ccccc23)cc1` [compound 122], the mortality at 250 ppm is 80 to 95%.

Regarding `COCc1cc(Cl)ccc1C#CCCNc1ncnc2ccccc12` [compound 140], the mortality at 250 ppm is above 95%.

In the case of `COCc1cccc(F)c1C#CCCNc1ncnc2ccccc12` [compound 141], the mortality at 250 ppm is above 95%.

Take `COCc1ccc(F)cc1C#CCCNc1ncnc2ccccc12` [compound 142]: the mortality at 250 ppm is above 95%.

For `COCc1cc(C)ccc1C#CCCNc1ncnc2ccccc12` [compound 145], the mortality at 250 ppm is above 95%.

Take `N#CCc1ccccc1C#CCCNc1ncnc2ccccc12` [compound 147]: the mortality at 250 ppm is above 95%.

Regarding `COCOCc1ccccc1C#CCCNc1ncnc2ccccc12` [compound 148], the mortality at 250 ppm was above 95%.

With `COC(OC)c1ccccc1C#CCCNc1ncnc2ccccc12` [compound 149], the mortality at 250 ppm is above 95%.

`CCOC(OCC)c1ccccc1C#CCCNc1ncnc2ccccc12` [compound 150]: the mortality at 250 ppm is above 95%.

As to `CCOC(OCC)c1ccc(C#CCCNc2ncnc3ccccc23)cc1` [compound 151], the mortality at 250 ppm was above 95%.

Consider `CSCc1ccccc1C#CCCNc1ncnc2ccccc12` [compound 152], for which the mortality at 250 ppm lay in the range of 60 to 80%.

Regarding `OCCc1ccccc1C#CCCNc1ncnc2ccccc12` [compound 158], the mortality at 250 ppm is above 95%.

Turning to `CN(C)c1ccc(C#CCCNc2ncnc3ccccc23)cc1` [compound 159], the mortality at 250 ppm lay in the range of 60 to 80%.

For the compound `CC(=O)Nc1ccccc1C#CCCNc1ncnc2ccccc12` [compound 160], the mortality at 250 ppm was in the range of 60 to 80%.

As to `CN(C)S(=O)(=O)c1ccccc1C#CCCNc1ncnc2ccccc12` [compound 161], the mortality at 250 ppm was above 95%.

With `Fc1ccc(F)c(C#CCCNc2ncnc3ccccc23)c1` [compound 163], the mortality at 250 ppm fell in the range of 60 to 80%.

Regarding `Fc1ccc(C(F)(F)F)c(C#CCCNc2ncnc3ccccc23)c1` [compound 168], the mortality at 250 ppm was 60 to 80%.

In the case of `Fc1ccc(C#CCCNc2ncnc3ccccc23)c(C(F)(F)F)c1` [compound 169], the mortality at 250 ppm lay in the range of 80 to 95%.

Consider `N#Cc1cc(F)ccc1C#CCCNc1ncnc2ccccc12` [compound 170], for which the mortality at 250 ppm lay in the range of 80 to 95%.

For the compound `FC(F)(F)c1cc(Cl)ccc1C#CCCNc1ncnc2ccccc12` [compound 178], the mortality at 250 ppm was in the range of 80 to 95%.

Regarding `Cc1ccc(C#CCCNc2ncnc3ccccc23)c(C)c1` [compound 180], the mortality at 250 ppm was above 95%.

In the case of `COc1ccc2cc(C#CCCNc3ncnc4ccccc34)ccc2c1` [compound 184], the mortality at 250 ppm lay within 60 to 80%.

On to `COCc1ccc2ccccc2c1C#CCCNc1ncnc2ccccc12` [compound 185], for which the mortality at 250 ppm lay within 60 to 80%.

As to `N#Cc1cc(C(F)(F)F)ccc1C#CCCNc1ncnc2ccccc12` [compound 187], the mortality at 250 ppm fell in the range of 60 to 80%.

As for `C(#Cc1ccc2ncccc2c1)CCNc1ncnc2ccccc12` [compound 190], the mortality at 250 ppm is 60 to 80%.

Turning to `Fc1ccc(C#CCCNc2ncnc3ccccc23)cn1` [compound 194], the mortality at 250 ppm lay in the range of 60 to 80%.

As to `FC(F)(F)c1ccc(C#CCCNc2ncnc3ccccc23)nc1` [compound 197], the mortality at 250 ppm was above 95%.

As to `COc1cc(C#CCCNc2ncnc3ccccc23)ccn1` [compound 199], the mortality at 250 ppm lay in the range of 60 to 80%.

As to `C(#Cc1cccs1)CCNc1ncnc2ccccc12` [compound 204], the mortality at 250 ppm was in the range of 80 to 95%.

As for `COCc1ccsc1C#CCCNc1ncnc2ccccc12` [compound 207], the mortality at 250 ppm was above 95%.

Take `Cc1ccsc1C#CCCNc1ncnc2ccccc12` [compound 208]: the mortality at 250 ppm was above 95%.

For `C(#Cc1cscn1)CCNc1ncnc2ccccc12` [compound 210], the mortality at 250 ppm is 60 to 80%.

In the case of `Cc1nc(C#CCCNc2ncnc3ccccc23)cs1` [compound 211], the mortality at 250 ppm lay in the range of 80 to 95%.

For the compound `COc1nc(C#CCCNc2ncnc3ccccc23)cs1` [compound 212], the mortality at 250 ppm lay within 60 to 80%.

With `N#Cc1ccccc1Oc1nc(C#CCCNc2ncnc3ccccc23)cs1` [compound 221], the mortality at 250 ppm fell in the range of 60 to 80%.

As for `CC(CC#Cc1ccccc1)Nc1ncnc2sccc12` (centres unmarked) [compound 229], the mortality at 250 ppm was above 95%.

As for `CC(CC#Cc1ccc(F)cc1)Nc1ncnc2sccc12` (centres unmarked) [compound 230], the mortality at 250 ppm is above 95%.

For the compound `CC(CC#Cc1ccccc1Cl)Nc1ncnc2sccc12` (centres unmarked) [compound 231], the mortality at 250 ppm was above 95%.

With `CC(CC#Cc1cccc(C(F)(F)F)c1)Nc1ncnc2sccc12` (centres unmarked) [compound 234], the mortality at 250 ppm is above 95%.

For `COc1ccccc1C#CCC(C)Nc1ncnc2sccc12` (centres unmarked) [compound 236], the mortality at 250 ppm lay within 80 to 95%.

As for `CC(CC#Cc1ccccc1S(C)(=O)=O)Nc1ncnc2sccc12` (centres unmarked) [compound 237], the mortality at 250 ppm is above 95%.

Regarding `Cc1ccccc1C#CCC(C)Nc1ncnc2sccc12` (centres unmarked) [compound 239], the mortality at 250 ppm is above 95%.

For `CC(CC#Cc1ccccc1OC(C)C)Nc1ncnc2sccc12` (centres unmarked) [compound 242], the mortality at 250 ppm is above 95%.

The term mortality denotes the percentage killed.
